PubChem BioAssay AID2546 (National Center for Advancing Translational Sciences (NCATS), 2010)
In all, about 310,000 compounds went through this assay and about 11,000 (3.5%) were called active. This list was built around the results that the source calls inconclusive (neither active nor inactive); the mix of calls is not that of the screen. The call rests on the fitted dose curve; in most records, active means well fitted inhibition curve with a large enough effect; inconclusive means small, poorly fitted or top-dose-only effect, or effect the other way; inactive means flat fitted curve, though single readings scatter. No potency is given beside an inconclusive call; the fits are too rough.

Assay: VP16 counterscreen qHTS for inhibitors of ROR gamma transcriptional activity;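 further: Gal4-VP16 expression switched on by copper sulfate through the metallothionein promoter; nearly all actives have a fitted effect of over 50% in size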
Settings: Drosophila S2 Gal4-VP16 UAS-luciferase, luminescence, 20 h; activity, negative = inhibition: at 53.6 µM (top of the series)
On the % scale 0 is the no-effect control and ±100 the full control effect; potency means the concentration at half of the fitted maximal effect; tags describe the fitted curve by direction and shape.

Row | Structure (SMILES) | activity, negative = inhibition | Potency
1 | O=C(CN1C(=O)c2ccccc2S1(=O)=O)NCCSc1ccccc1 | inactive: 14.3% | 
2 | N#C/C(=C\c1coc2ccc(O)cc2c1=O)C(=O)Nc1nc2ccccc2s1 |  | inconclusive [inhibitor, single point]
3 | Cc1cccc(OCc2nnc(SCC(=O)Nc3cccc(C(=O)N4CCOCC4)c3)n2C)c1C |  | inconclusive [inhibitor, single point]
4 | Cc1cccn2cc(CSc3nnc(Nc4ccc(C(C)C)cc4)s3)nc12 |  | inconclusive [inhibitor, single point]
5 | Cc1nc(SCC(=O)Nc2ccccc2Cl)oc1C | inactive: 0.407% | 
6 | COc1cccc(NC(=O)Cn2c(CCC(=O)O)ccc2-c2ccc(Cl)cc2)c1 | inactive: 2.37% | 
7 | Cc1cncn1CCc1nc2c3ccccc3nc(SCC(=O)Nc3cccc(Cl)c3)n2n1 |  | inconclusive [inhibitor, single point]
8 | CC(Oc1ccc(Br)cc1Cl)C(=O)Nc1ccncc1 (centres undefined) |  | inconclusive [inhibitor, single point]
9 | CCOc1ccc(C(=O)Nc2cccc(C(=O)O)c2)cc1Cl |  | inconclusive [inhibitor, partial curve, poor fit]
10 | O=C(O)c1ccc(N=Cc2c(O)ccc3ccccc23)cc1 |  | inconclusive [inhibitor, single point]
11 | COc1ccccc1OCCOc1ccc(/C=C2\C(=N)N3N=C(C)SC3=NC2=O)cc1 |  | inconclusive [inhibitor, partial curve, poor fit]
12 | Brc1ccc(-c2cn3nc4c(nc3n2)CCCC4)cc1 |  | inconclusive [inhibitor, single point]
13 | COc1ccc(-c2cn(-c3ccc(C)cc3C)c(=S)[nH]2)cc1OC |  | inconclusive [inhibitor, full curve]
14 | c1ncc(-c2ccc3c(c2)OCO3)c(NCCc2cnc[nH]2)n1 | inactive: 4.45% | 
15 | CCOc1cccc(CNc2ccc(O)cc2)c1OCc1ccc(Cl)cc1Cl |  | inconclusive [inhibitor, single point]
16 | Cc1ccc(Oc2ccc(NC(=O)CSc3n[nH]c(N)n3)cc2)cc1 |  | inconclusive [inhibitor, single point]
17 | CCNCc1nc2cc(Cl)ccc2c(=O)[nH]1 |  | active: 15.8 µM
18 | COc1ccc2cc(C(N)=O)/c(=N\NC(=O)c3ccccc3)oc2c1 |  | inconclusive [inhibitor, single point]
19 | CCc1c(O)nc(SCC(=O)Nc2ccc(Br)cc2)n(-c2ccc(C)cc2)c1=O |  | inconclusive [inhibitor, single point]
20 | O=C1CCCCCN1C(=O)c1ccc(C(=O)N2CCCCCC2=O)cc1 | inactive: 5.08% | 
21 | CCCc1cc(C(=O)NNC(=S)NCC)c2ccccc2n1 |  | inconclusive [inhibitor, single point]
22 | COc1ccc(NC(=O)Cn2nnc(-c3ccccc3NS(=O)(=O)c3ccccc3)n2)cc1 |  | inconclusive [inhibitor, full curve, poor fit]
23 | COc1ccc(N2CCN(Cc3nc(-c4ccc(Cl)cc4Cl)no3)CC2)cc1 |  | inconclusive [inhibitor, single point]
24 | O=C1CCC(=O)N1c1ccc(S(=O)(=O)Nc2ccc(Br)cc2)cc1 |  | inconclusive [inhibitor, single point]
25 | O=C(/C=C/c1cccnc1)c1ccc([N+](=O)[O-])cc1 |  | inconclusive [inhibitor, single point]

Row | Structure (SMILES) | activity, negative = inhibition | Potency
26 | CC(=O)Nc1ccc(Nc2cc(C)nc3c(-c4ccc(Cl)cc4)cnn23)cc1 |  | inconclusive [inhibitor, single point]
27 | CN(Cc1cccnc1)C(=O)c1cc(COc2ccc3ncccc3c2)on1 |  | active: 2.82 µM
28 | Cc1cc(C)cc(N(CC(=O)N/N=C/c2ccncc2)S(=O)(=O)c2ccccc2)c1 | inactive: -8.33% | 
29 | CC(=O)c1ccc(-c2cccs2)s1 |  | inconclusive [activator, single point]
30 | COC(=O)CS(=O)(=O)c1nnc([C@H](Cc2ccccc2)NC(=O)OC(C)(C)C)o1 |  | inconclusive [inhibitor, single point]
31 | COc1cc(Br)cc(/C=C/c2ccc3cccc(O)c3n2)c1OC |  | inconclusive [inhibitor, partial curve]
32 | Oc1ccc(N=Cc2ccc(O)c(O)c2)cc1 |  | active: 10 µM
33 | CCN(C(=O)Nc1cccc(Cl)c1)c1ccccc1 | inactive: 13.5% | 
34 | CS(=O)(=O)Nn1cnc2ccccc2c1=O |  | inconclusive [inhibitor, single point]
35 | O=C(CSc1nnc(-c2cccc(Br)c2)o1)N1CCOCC1 |  | inconclusive [activator, partial curve]
36 | COc1cccc(-c2nnc3n2N=C(c2ccc(OC)cc2OC)CS3)c1 |  | active: 7.94 µM
37 | O=C(Nc1ccccn1)c1csc2c1CCCC2 |  | inconclusive [activator, full curve]
38 | CCCCN1C(=S)NC[C@@H]1C(C)CC (some centres undefined) |  | active: 10 µM
39 | CCCc1nnc(SCCSc2nnc(CCC)n2N)n1N | inactive: -6.31% | 
40 | CCc1cc2cc(C)ccc2nc1SCC(=O)N1CCN(C(=O)c2ccco2)CC1 | inactive: -2.21% | 
41 | O=C(NC(=S)NCc1ccc(F)cc1)c1ccccc1 |  | inconclusive [inhibitor, single point]
42 | O=C(NC(=S)N1CCOCC1)C12CCC3CC(CC(C3)C1)C2 |  | active: 1.78 µM
43 | COCCNC(=O)C1CCCN(S(=O)(=O)c2c(C)noc2/C=C/c2cccs2)C1 (centres undefined) |  | inconclusive [inhibitor, single point]
44 | CO[C@H]1COC(=O)[C@@H](C)COC(=O)[C@@H](OCc2ccccc2)/C=C\[C@@H]1C | inactive: 22.3% [at 10 µM] | 
45 | Cc1cccc(NC(=O)CC(=O)Nc2cccc(C)c2)c1 | inactive: -6.61% | 
46 | O=C(CSc1nnc2n1CCCN2C(=S)Nc1ccc(Cl)cc1)c1ccccc1 |  | inconclusive [inhibitor, single point]
47 | COc1ccc(-c2oc3ccccc3c2C(=O)OCc2ccccc2OC)cc1 | inactive: -2.12% | 
48 | CCCCC/C=C\C/C=C\CCCCCCCC(=O)O[C@@H](CO)COC(=O)CCCCCCCCCCCCCCCCC | inactive: 10.2% | 
49 | CCCn1c(CCNc2nc(-c3ccc(Cl)c([N+](=O)[O-])c3)cs2)nc2cc(Cl)c(Cl)cc21 | inactive: -4.55% | 
50 | Cc1c(C#N)c(NC(=O)CCl)n(Cc2ccccc2)c1C |  | inconclusive [inhibitor, single point]

Row | Structure (SMILES) | activity, negative = inhibition | Potency
51 | Cc1ccc(Sc2ccc(NC(=O)CCl)cc2)cc1C |  | inconclusive [inhibitor, partial curve]
52 | c1ccc(-c2csc3ncnc(NCC4COc5ccccc5O4)c23)cc1 (centres undefined) |  | active: 0.891 µM
53 | O=C(N/N=C/c1c[nH]c2ccccc12)c1ccc(O)c(O)c1 |  | inconclusive [inhibitor, full curve, poor fit]
54 | O=C(O)c1ccc(NNC(=S)Nc2cc(C(F)(F)F)ccc2Cl)cc1 |  | inconclusive [inhibitor, single point]
55 | C/C(=N\NC(=O)c1nnn(-c2nonc2N)c1C(C)C)c1ccc2ccccc2c1 | inactive: -18.2% | 
56 | CN(C)/C=C1\C(=O)N(c2ccc([N+](=O)[O-])cc2)N=C1c1ccccc1 |  | inconclusive [inhibitor, single point]
57 | COc1ccc(-c2nc(-c3ccccc3)c(-c3cc([N+](=O)[O-])ccc3C)[nH]2)cc1O |  | inconclusive [inhibitor, single point]
58 | CCc1ccccc1OC[C@@H](O)CN[C@H]1CCCc2ccccc21 |  | active: 14.1 µM
59 | Cc1ccoc1C(=O)N1CCCC(CO)(Cc2ccc(F)cc2)C1 (centres undefined) | inactive: 1.48% | 
60 | CC(C)(C)c1ccc(C(=O)Nn2c(CCC(=O)O)ccc2-c2cccs2)cc1 |  | inconclusive [inhibitor, single point]
61 | NNc1nc(-c2ccccc2)cc(-c2ccc(Br)cc2)n1 |  | inconclusive [inhibitor, single point]
62 | COc1ccc(CNC(=O)c2noc(C(C)C)c2[N+](=O)[O-])cc1 |  | inconclusive [activator, single point]
63 | Cc1c(N/C=C/C(=O)C(F)(F)F)c(=O)n(-c2ccccc2)n1C | inactive: 1.97% | 
64 | CCOc1ccc(N/C=C/C(=O)c2cc(OC)c(OC)c(OC)c2)cc1 | inactive: 2.16% | 
65 | CC1=CC(C)(C)N(C(=O)CSc2nnc(-c3ccccc3)o2)c2ccc(C)cc21 |  | inconclusive [inhibitor, single point]
66 | N/C(=N\NC(=O)c1ccc(F)cc1)c1cc2ccccc2oc1=O |  | inconclusive [inhibitor, full curve]
67 | S=C1Cc2ccccc2C(c2ccc(Cl)cc2)N1 (centres undefined) |  | active: 5.62 µM
68 | Cc1cc(C)cc(OCCCOc2cccc3cccnc23)c1 |  | inconclusive [inhibitor, single point]
69 | O=C(O)C1CCN(C(=O)c2ccc(Cl)cc2)CC1 | inactive: 3.38% | 
70 | CN1C(=O)c2oc3ccccc3c(=O)c2C1c1ccncc1 (centres undefined) |  | inconclusive [inhibitor, single point]
71 | COC(=O)Cc1ccc(NC(=S)NCc2ccccc2OC)cc1 |  | active: 25.1 µM
72 | CCCCNC(=S)N(Cc1ccco1)Cc1cc2cc3c(cc2[nH]c1=O)OCCO3 | inactive: -8.52% | 
73 | CCOC(=O)C1C(=O)CC(C)(O)C(C(=O)OCC)C1c1cccs1 (centres undefined) | inactive: -8% | 
74 | Cc1[nH]n(-c2ccccc2)c(=O)c1/C=N/N(c1ccccc1)c1ccccc1 |  | inconclusive [inhibitor, partial curve]
